About 150 (0.038%) of roughly 390,000 compounds were called active. The inconclusive results got no clear call from the source; some entries with a clear call stand among them for comparison. The call rests on the fitted dose curve; in most records, active means well fitted inhibition curve with a large enough effect; inconclusive means small, poorly fitted or top-dose-only effect; inactive means no such curve, though single readings can be large or run the other way. Potencies of inconclusive entries are doubtful fits and often do not repeat.
What follows are compounds tested against Regulator of G-protein signaling 4 (Homo sapiens) (UniProt P49798) (assay: Inhibitors of Regulator of G Protein Signaling (RGS) 4: qHTS). Conditions: Transcreener GDP fluorescence polarization, RGS4-accelerated GTP hydrolysis; series mostly up to 114 µM.
Chain of UniProt P49798 (P49798 whole entry, looked up): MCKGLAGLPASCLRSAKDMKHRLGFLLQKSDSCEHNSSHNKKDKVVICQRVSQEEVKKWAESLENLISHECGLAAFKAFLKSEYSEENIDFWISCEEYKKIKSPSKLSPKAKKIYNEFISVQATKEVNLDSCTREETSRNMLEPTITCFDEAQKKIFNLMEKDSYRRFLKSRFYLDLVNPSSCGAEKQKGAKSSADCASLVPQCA
In short: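 MLSMR compounds (23 nl, pin-transferred) preincubated 10 min at room temperature with a 500nM (2x) first reagent, then RGS4 at 900nM (2x) plus Transcreener GDP mix added; fluorescence polarization (620/688 nm) read before and after 90 min at 30 °C.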
With `COc1ccc(-n2nc3c(N4CCCC(C(=O)NCc5ccc(C)cc5)C4)nnc(C)c3c2C)cc1` (configuration not stated) the Potency was inconclusive: 79.4 µM [inhibitor, partial curve, poor fit].
For `CC(C)Cn1c(-c2ccccc2F)n[nH]c1=S`, the Potency was “inactive”.
In the case of `O=C(Nc1ccc2oc(=O)ccc2c1)c1ccc(-c2ccccc2[N+](=O)[O-])o1`, the Potency is reported as inconclusive: 28.2 µM [inhibitor, full curve, poor fit].
`O=C1OC(c2cccs2)=N/C1=C/c1ccc(-c2cccc(C(=O)O)c2)o1` was tested, and the Potency was “inactive”.
`COc1ccc(C(=O)O/N=C(/c2cccs2)C(C)(C)C)cc1` was tested, and the Potency was “inactive”.
For `CCCCCCC1(C)NC(=S)N(c2ccccc2)N1` (configuration not stated), the Potency was inconclusive: 17.8 µM [inhibitor, full curve, poor fit].
With `O=C(CSc1ccccn1)N1CCN(c2cccc(Cl)c2)CC1` the Potency was inconclusive: 70.8 µM [inhibitor, partial curve, poor fit].
`CN(Cc1ccccc1)S(=O)(=O)c1ccc(OCC(=O)N2CCC(C(N)=O)CC2)cc1` was tested, and the Potency was “inactive”.
In the case of `C=CCOc1ccc(Br)cc1/C=C1/SC(=Nc2ccc(C(=O)O)cc2)NC1=O`, the Potency is reported as inconclusive: 70.8 µM [inhibitor, partial curve, poor fit].
In the case of `S=C(NCc1ccco1)Nc1ccc2c(c1)OCCO2`, the Potency is reported as inconclusive: 50.1 µM [inhibitor, partial curve, poor fit].
`Cn1cccc1CC(=O)N/N=C/C=C/c1ccco1` was tested, and the Potency was inconclusive: 79.4 µM [inhibitor, partial curve, poor fit].
With `CSc1nc(C)c2c(n1)N(c1ccc(O)cc1)CC2` the Potency was “inactive”.
With `C=CS(=O)(=O)c1ccc(Oc2ccc(S(=O)(=O)C=C)cc2)cc1` the Potency was inconclusive: 28.2 µM [inhibitor, full curve, poor fit].
With `CCC[n+]1c(C)sc2c(OC)ccc(OC)c21` the Potency was inconclusive: 28.2 µM [inhibitor, full curve, poor fit].
For `N#Cc1ccc(Cl)cc1NC(=O)COC(=O)c1ccc2c(c1)OCCO2`, the Potency was inconclusive: 89.1 µM [inhibitor, single point].
`N#Cc1c(-c2cccnc2)c2c([nH]c1=S)CCCC2` was tested, and the Potency was inconclusive: 44.7 µM [inhibitor, partial curve, poor fit].
`COc1cccc2cc(C(C)N(CCCN3CCOCC3)C(=S)Nc3cc(C)cc(C)c3)oc12` (configuration not stated) was tested, and the Potency was “inactive”.
In the case of `CCN(CC)C(=O)CSc1nc2c(sc(=S)n2-c2ccccc2)c(=O)n1Cc1ccco1`, the Potency is reported as inconclusive: 100 µM [inhibitor, partial curve, poor fit].
With `Cc1cc(/C=N/NC(=O)c2ccc(O)cc2)c(C)n1C1CC1` the Potency was inconclusive: 50.1 µM [inhibitor, partial curve, poor fit].
In the case of `NNc1cc(C(=O)O)ccc1Cl`, the Potency is reported as inconclusive: 50.1 µM [inhibitor, partial curve, poor fit].
`CC(=O)c1ccc(NC(=O)CSc2ccc(-c3cccs3)nn2)cc1` was tested, and the Potency was inconclusive: 11.2 µM [inhibitor, full curve, poor fit].
For `CN(C)c1ccc(CNC(=O)c2cnc3sc(N4CCOCC4)nn3c2=O)cc1`, the Potency was “inactive”.
In the case of `COc1ccc(/C(O)=C2/C(=O)C(=O)N(CCN3CCOCC3)C2c2ccccn2)cc1OC` (configuration not stated), the Potency is reported as inconclusive: 112 µM [inhibitor, partial curve, poor fit].
In the case of `COC(=O)c1sc(NC(=O)COc2ccc(OC)cc2)nc1C`, the Potency is reported as “inactive”.
For `Oc1ccc(N=Nc2ccc3c(c2)OCCO3)c2cccnc12`, the Potency was inconclusive: 44.7 µM [inhibitor, partial curve, poor fit].
In the case of `CC1CCC(C(C)C)C(OC(=O)CSc2nccc(=O)[nH]2)C1` (configuration not stated), the Potency is reported as inconclusive: 70.8 µM [inhibitor, single point].
For `O=C(Nc1ccc(C(=O)N2CCCCC2)cc1)c1ccccc1`, the Potency was “inactive”.
In the case of `CN(CC(=O)Nc1ccc(OC(F)(F)F)cc1)C(=O)Cc1c(Cl)cccc1Cl`, the Potency is reported as “inactive”.
`O=C(CCN1C(=O)c2ccccc2S1(=O)=O)N1CCN(c2ccccc2)CC1` was tested, and the Potency was inconclusive: 100 µM [inhibitor, single point].
`C=CC(=O)N1CCCC(Nc2nc(Nc3ccc(N(C)C(=O)CC)cc3C)nc3nc[nH]c23)C1` (configuration not stated) was tested, and the Potency was “inactive”.
For `COc1ccc(OCCC(=O)OCC(=O)NC2CCCCC2)cc1`, the Potency was “inactive”.
`O=C1CC(c2ccc(Cl)cc2)CC(O)=C1C=NCCO` (configuration not stated) was tested, and the Potency was inconclusive: 100 µM [inhibitor, single point].
In the case of `O=C(NCCCO)c1ccc2nc(-c3ccco3)c(-c3ccco3)nc2c1`, the Potency is reported as inconclusive: 79.4 µM [inhibitor, single point].
With `C/C=C/C=C\C(=O)Nc1cccc(C2=NOC3(C2)C[C@@H](C(N)=O)N(C(=O)c2cc([N+](=O)[O-])cc([N+](=O)[O-])c2C)C3)c1` (some centres not stated) the Potency was inconclusive: 89.1 µM [inhibitor, partial curve, poor fit].
`O=C1CCCCC/C1=N/Nc1ccc(OCc2ccccc2)cc1` was tested, and the Potency was inconclusive: 44.7 µM [inhibitor, partial curve, poor fit].
`CCn1c(SCC(=O)N/N=C/C=C/c2ccco2)nc2ccccc21` was tested, and the Potency was inconclusive: 17.8 µM [inhibitor, partial curve, poor fit].
With `COc1cc(/C=C2/C(=O)NN(c3cccc(C)c3)C2=O)ccc1OC(=O)c1ccco1` the Potency was inconclusive: 25.1 µM [inhibitor, full curve, poor fit].
`O=C(COc1ccc2ccccc2c1)N/N=C/c1ccccn1` was tested, and the Potency was inconclusive: 35.5 µM [inhibitor, full curve, poor fit].
With `Cc1ccccc1/C=N/Nc1nc2ccccc2c(=O)n1O` the Potency was inconclusive: 79.4 µM [inhibitor, partial curve, poor fit].
`CC(C(=O)NC(=O)NC1CCCCC1)N1CCN(c2ccc(O)cc2)CC1` (configuration not stated) was tested, and the Potency was inconclusive: 79.4 µM [inhibitor, single point].
`O=C(NCC(c1ccc(Cl)cc1)N1CCOCC1)c1ccccc1F` (configuration not stated) was tested, and the Potency was “inactive”.
With `CCOC(=O)c1c(NC(=O)c2nc(S(C)(=O)=O)ncc2Cl)sc(C(C)=O)c1C` the Potency was “inactive”.
With `O=C(Nc1nc(-c2ccccn2)cs1)c1ccc([N+](=O)[O-])o1` the Potency was inconclusive: 100 µM [inhibitor, partial curve, poor fit].
`Cc1c(O)nc(SCC(=O)Nc2nccs2)n(-c2ccccc2F)c1=O` was tested, and the Potency was “inactive”.
In the case of `Cc1ccc(S(=O)(=O)NCCNc2ccc([N+](=O)[O-])cc2)cc1`, the Potency is reported as “inactive”.
`O=C(O)c1ccccc1CSc1nnc2c(n1)[nH]c1ccccc12` was tested, and the Potency was inconclusive: 79.4 µM [inhibitor, partial curve, poor fit].
In the case of `OCc1ccccc1SSc1ccccc1CO`, the Potency is reported as inconclusive: 11.2 µM [inhibitor, full curve, poor fit].
In the case of `CCCc1cc(=O)oc2cc(C)cc(OC(C)C(=O)NCCCn3ccnc3)c12` (configuration not stated), the activity change, negative = inhibition is reported as inactive: -8.43% [at 11.4 µM].
With `Cc1ccc([C@@H]2[C@@H]3C(=O)N(c4ccccc4)C(=O)[C@@H]3[C@]3(C)C(=O)N(Cc4ccc(-c5ccccc5)cc4)CC(=O)N23)o1` the Potency was inconclusive: 100 µM [inhibitor, partial curve, poor fit].
`Cc1ccc2c(c1)N(CCCC(=O)Nc1cccc(C(F)(F)F)c1)C(=O)CO2` was tested, and the Potency was inconclusive: 79.4 µM [inhibitor, partial curve, poor fit].
In the case of `N#Cc1ccc(CSc2nnc(NC(=O)c3ccc(=O)[nH]c3)s2)cc1`, the Potency is reported as inconclusive: 17.8 µM [inhibitor, full curve, poor fit].
With `CCOc1cc(/C=C2\C(=O)N(Cc3ccco3)C(C)=C2C(=O)OC)ccc1O` the Potency was inconclusive: 79.4 µM [inhibitor, partial curve, poor fit].
With `CCOc1cc(/C=C2\C(=O)N(Cc3ccc(C)cc3)C(C)=C2C(=O)OC)ccc1O` the Potency was inconclusive: 50.1 µM [inhibitor, partial curve, poor fit].
For `COc1cc(OC)c2c(c1)OC(c1ccccc1)CC2=O` (configuration not stated), the Potency was active: 5.32 µM.
For `COC(CNC(=O)CNC(=S)N(CCCN1CCOCC1)Cc1cccs1)OC`, the Potency was “inactive”.
With `Cc1nn(-c2ccccc2)cc1/C=N/O` the Potency was “inactive”.
`Cc1ccc(C)c(N2CCN(CCCNC(=O)Cn3cccc3C(=O)c3ccccc3)CC2)c1` was tested, and the Potency was “inactive”.
`CCOC(=O)CSC1=C(C#N)C(=O)NC2(CCCCC2)S1` was tested, and the Potency was inconclusive: 35.5 µM [inhibitor, partial curve, poor fit].
`COc1cc(OC)c(NC(=O)Cn2cnc3sc(C)c(S(=O)(=O)N4CCOCC4)c3c2=O)cc1Cl` was tested, and the Potency was “inactive”.
For `CCNc1nc(NC(N)=S)nc(NC(C)(C)C)n1`, the Potency was inconclusive: 17.8 µM [inhibitor, partial curve, poor fit].
`O=C1NCCCC2c3c(cc(Br)c(O)c3Br)OC12N1CCCCC1` (configuration not stated) was tested, and the Potency was inconclusive: 79.4 µM [inhibitor, partial curve, poor fit].
`COc1ccc(S(=O)(=O)NC(CCSC)C(=O)NC2CCCCC2)cc1` (configuration not stated) was tested, and the Potency was “inactive”.
In the case of `CCCS(=O)(=O)c1nc(S(=O)(=O)c2ccc(C)cc2)c(NC)s1`, the Potency is reported as “inactive”.
With `COc1ccc2c(CSc3nc4nc(C)cc(C)n4n3)cc(=O)oc2c1` the Potency was inconclusive: 20 µM [inhibitor, full curve, poor fit].
For `O=c1c2ccccc2ncn1-c1ccc(Cl)cc1`, the Potency was inconclusive: 89.1 µM [inhibitor, single point].
For `Cn1nnnc1SCC(=O)c1ccc(Br)s1`, the Potency was inconclusive: 70.8 µM [inhibitor, partial curve, poor fit].
With `Cc1ccc(N(CC(=O)Nc2ccc(Cl)cc2)S(=O)(=O)c2cccc3nonc23)cc1` the Potency was “inactive”.
Further: nearly all actives have a fitted effect of over 75% in size.
On the % scale 0 is the no-effect control and ±100 the full control effect; potency means the concentration at half of the fitted maximal effect; tags describe the fitted curve by direction and shape.
